According to PubChem BioAssay AID1745853 (National Center for Advancing Translational Sciences (NCATS), 2022):
The other results are listed elsewhere or left out. Further columns of the screen follow, without active or inactive calls.

Legend:
Experiment in all cases: Primary Screen for Target Class Profiling of Small Molecule Inhibitors of Methyltransferases
[1] = biological target: Glycine N-methyltransferase (Homo sapiens) (UniProt Q14749); conditions: purified enzyme, MTase-Glo SAH luminescence; measured here: GNMT inhibition; at 40 µM; stronger effect = lower value
Summary of the method: (§1)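 Each enzyme was assayed with SAM and its substrate. SAH formation detected by MTase-Glo luminescence; single-point 40 uM screen[…].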

[2] = biological target: Guanidinoacetate N-methyltransferase (Homo sapiens) (UniProt Q14353); conditions: purified enzyme, MTase-Glo SAH luminescence; measured here: GAMT inhibition; at 40 µM; stronger effect = lower value
Summary of the method: as §1

[3] = biological target: Histamine N-methyltransferase (Homo sapiens) (UniProt P50135); conditions: purified enzyme, MTase-Glo SAH luminescence; measured here: HNMT inhibition; at 40 µM; stronger effect = lower value
Summary of the method: as §1

[4] = biological target: Nicotinamide N-methyltransferase (Homo sapiens) (UniProt P40261); conditions: purified enzyme, MTase-Glo SAH luminescence; measured here: NNMT inhibition; at 40 µM; stronger effect = lower value
Summary of the method: as §1

[5] = biological target: Phenylethanolamine N-methyltransferase (Homo sapiens) (UniProt P11086); conditions: purified enzyme, MTase-Glo SAH luminescence; measured here: PNMT inhibition; at 40 µM; stronger effect = lower value
Summary of the method: as §1
% is scaled to controls: 0 for no effect and ±100 for the full control effect.

SMILES | activity change, negative = inhibition [1] [%] | activity change, negative = inhibition [2] [%] | activity change, negative = inhibition [3] [%] | activity change, negative = inhibition [4] [%] | activity change, negative = inhibition [5] [%]
O=S(=O)(NCc1cccnc1Oc1ccc(F)cc1F)c1cccnc1 | -1.71 | -0.111 | 0.303 | 0.643 | 0.495
C=C[C@@]1(C)CC(=O)[C@]2(O)[C@@]3(C)[C@@H](O)CCC(C)(C)[C@@H]3[C@H](O)[C@H](OC(C)=O)[C@@]2(C)O1 | – | 7.65 | – | -2.48 | 7.16
Cc1ccc(NC(=O)N2CCn3cccc3C2C)cc1C (configuration not stated) | -6.08 | 0 | -3.05 | -8.79 | -3.44
Cc1cccc(C(=O)N2CC(Oc3ccc(-c4noc(C5CCOCC5)n4)cc3)C2)c1 | -9.3 | -2.95 | -2.13 | -12.4 | -1.09
CN1C(=O)c2cc3ccccc3n2CC1(C)C(=O)NCC(=O)NCc1cccs1 (configuration not stated) | 5.08 | -2.34 | 7.93 | 11.8 | 0.899
CCOc1ccc(C(=O)Cn2nc3n(CC(C)C)c(=O)c4ccc(C(=O)NCC(C)C)cc4n3c2=O)cc1 | 4.26 | 2.22 | 4.64 | 1.81 | -1.27
NCCc1noc(-c2ccccc2)n1 | 0.501 | 0.583 | 3.4 | -3.36 | 0.551
CCOC(=O)c1cc2n(n1)CC(C)(C(=O)NC1CCCCCC1)N(Cc1ccc(OC)cc1)C2=O (configuration not stated) | 0.564 | 1.51 | 8.28 | 10.1 | 0.019
COCCN1CC(C(=O)N2CCN(c3ncccc3C#N)CC2)CCC1=O (configuration not stated) | -0.6 | -1.19 | 0.523 | -1.32 | 1.83
COc1ccc(-c2nc(Cn3c(-c4ccc(Cl)cc4)nc(C)c(CCO)c3=O)c(C)o2)cc1 | -5.72 | -5.45 | -3.54 | -10.8 | 0.327
COc1ccc2c(c1O)OC(C)(C)c1c-2ccc2c1C(=O)N(c1ccc(C(=O)c3ccccc3)cc1)C2=O | – | -18 | – | -34.8 | -11.6
CC(C)NC(=O)c1ccc2c(=O)n(C(C)C)c3nn(Cc4cccc(F)c4)c(=O)n3c2c1 | -4.14 | 5.97 | 3.63 | -7.69 | 3.87
CCOc1ccc(C2c3cccn3-c3sc4c(c3CN2C(=O)Nc2ccccc2F)CCCC4)cc1 (configuration not stated) | -2.21 | 0.555 | -1.36 | -2.3 | 3.28
CCCN1C(=O)c2c(C(=O)NCc3ccc(OC(C)C)cc3)ncn2CC1(C)C(=O)NCc1ccc(C)cc1 (configuration not stated) | 4.19 | 0 | 10.6 | 1.68 | 11.2
CC1(C(=O)NC2CCCCCCC2)Cn2c(cc3sccc32)C(=O)N1Cc1ccccc1F (configuration not stated) | 1.61 | 1 | 4.49 | 2.4 | -0.115
CC1CC(C)CN(CCCN2C(=O)c3ccc(-c4ccco4)n3CC2(C)C(=O)NC2CCCC2)C1 (configuration not stated) | 4.19 | 4.93 | 0.849 | 9.2 | 1.49
CCOC(=O)c1cc2n(n1)CC(C)(C(=O)NCCC(C)C)N(Cc1ccc(C)cc1)C2=O (configuration not stated) | -2.1 | 4.96 | 0.375 | 4.88 | -3.07
O=C(NCc1nc(-c2ncccn2)no1)C1CC2(CCNCC2)CN1 (configuration not stated) | 1.25 | -2.09 | -0.133 | -0.838 | 1.34
Cc1ccc(CN2C(=O)NC3(CCN(C(=O)Cc4cccc(F)c4)CC3)C2=O)cc1 | -2.42 | 3.92 | 2.31 | -4.8 | -0.955
c1csc(CNc2ncnc3ccc(-c4ccc5c(c4)OCO5)cc23)c1 | – | -7.4 | – | -21.1 | -7.92
Cn1ccnc1CN1C(=O)CO[C@H]2CN(C(=O)c3cnccn3)C[C@H]21 | -2.61 | -3.7 | -1.22 | -5.66 | -1.17

SMILES | activity change, negative = inhibition [1] [%] | activity change, negative = inhibition [2] [%] | activity change, negative = inhibition [3] [%] | activity change, negative = inhibition [4] [%] | activity change, negative = inhibition [5] [%]
COc1ccc(CNC(=O)c2cc3n(n2)CC(C)(C(=O)NC2CCCCC2)N(C)C3=O)c(OC)c1 (configuration not stated) | 0.995 | 2.29 | -7.22 | 2.05 | -1.2
CC(C)c1cc2n(n1)CC(C)(C(=O)NC1CCCCC1)N(Cc1ccccc1Cl)C2=O (configuration not stated) | -1.4 | 3.58 | 1.98 | 2.2 | -1.57
CCOc1ccccc1NC(=O)CN1C(=O)C(c2ccccc2)=NC12CCCCCC2 | -0.949 | -2.69 | -0.04 | -5.07 | 1.63
O=C(NCc1ccc(N2CCOCC2)cc1)c1cc[nH]c1C1CCCNC1 (configuration not stated) | -6.45 | -8.54 | -43.4 | -10.2 | -11.2
Nc1c2c(nc3ccccc13)CCCC2 | 4.71 | 12.1 | -85.5 | -10.3 | 5.06
COc1c(F)cccc1C(=O)N1CCc2onc(-c3ccccc3F)c2C1 | -5.68 | -0.234 | -2.46 | -18.9 | -3.6
CCCC(N[C@@H](C)C(=O)N1[C@H](C(=O)O)C[C@@H]2CCCC[C@@H]21)C(=O)OCC (some centres not stated) | 5.09 | 0.755 | 3.59 | -11.3 | -0.851
C[C@H]1[C@H](C)CC[C@]2(C(=O)O)CC[C@]3(C(=O)O)C(=CCC4[C@@]5(C)CC[C@H](O[C@@H]6O[C@H](C)[C@@H](O)[C@H](O)[C@H]6O)C(C)(C)C5CC[C@]43C)[C@H]12 (some centres not stated) | 4.1 | 6.03 | 9.51 | -7.09 | 1.89
COc1ccc(-c2nnn3c2nc(N2CCCC(C)C2)c2ccccc23)cc1 (configuration not stated) | -4.94 | 0 | -2.77 | -2.71 | -24.6
Cc1noc(-c2ccc(-c3ccc(CC(=O)O)cc3)cc2)c1NC(=O)O[C@H](C)c1ccccc1 | -13.6 | -6.05 | 0.627 | -23.8 | -10.1
CCCn1c(=O)c2cc(F)ccc2n2c(SCC(=O)Nc3ccc(OC)cc3)nnc12 | -3.43 | 5.65 | 3.14 | -3.57 | -0.638
Cc1cccc(N(C)S(=O)(=O)c2ccc3[nH]c4c(c3c2)CCCC4)c1 | 3.29 | 2.58 | 2.02 | -4.97 | -0.595
CCOc1ccc(OCC)c(NS(=O)(=O)c2ccc3[nH]c(=O)[nH]c3c2)c1 | 10 | 0 | 8.64 | -4.52 | -5.1
O=S(=O)(NCc1cccnc1-c1ccc(F)cc1)c1ccc(F)cc1 | 3.52 | 1.14 | 1.08 | 0.285 | -1.83
Cc1ccc(-c2cn(C3CN(C(=O)C4CCC4)C3)nn2)cc1 | -2.31 | -1.88 | 1.65 | -1.26 | 15.6
O=C1NC(Cc2c[nH]c3ccccc23)C(=O)NC1Cc1cnc[nH]1 (configuration not stated) | 1.48 | 7.24 | 9.12 | -5.2 | 8.54
O=C(C1CCC1)N1CCC2(CC1)CC(N1CCCCC1)CCO2 (configuration not stated) | -3.65 | -1.12 | -22.8 | -3.27 | 1.65
CC(=O)N1CCC(C(=O)N2CCn3nc(Cc4ccccc4)cc3C2)CC1 | -7.38 | -7.65 | -3.6 | -6.17 | -5.53
O=C(CCCc1nnc2n3nc(-c4ccccc4)nc3c3ccccc3n12)NCCCN1CCCCC1 | -11 | -3.34 | -48.1 | -0.646 | -14.5
COc1ccccc1CNC(=O)C1(C)Cn2cnc(C(=O)NC3CCCC3)c2C(=O)N1C1CC1 (configuration not stated) | -13.8 | -3.14 | -10.2 | -12.8 | -10
O=C(c1cccnc1)N1CCN(c2nnc3ccc(Cl)cn23)CC1 | -7.18 | 0.083 | -0.536 | 0.641 | 1.05

SMILES | activity change, negative = inhibition [1] [%] | activity change, negative = inhibition [2] [%] | activity change, negative = inhibition [3] [%] | activity change, negative = inhibition [4] [%] | activity change, negative = inhibition [5] [%]
O=C(Cn1nc2nc(Nc3ccc(F)cc3)ccn2c1=O)NCc1ccc2c(c1)OCO2 | 3.84 | 0.58 | 11.7 | 1.25 | 6.23
CC(c1ccc(-c2cc(N)ncn2)cc1)N1CCCCC1 (configuration not stated) | -2.01 | 0.357 | -29.8 | -5.9 | -11.1
CCCCNc1nc(N)c2[nH]c(=O)n(Cc3ccc(OCCN(C)C)nc3)c2n1 | -17.9 | 0.762 | -17.5 | -18.2 | -1.33
COC(=O)C(C)Oc1ccc2c(-c3ccccc3)cc(=O)oc2c1 (configuration not stated) | -2.77 | 4.88 | 7.8 | -7.38 | -10.5
CCCCN1C(=O)c2ccc(-c3ccco3)n2CC1(C)C(=O)NC1CCCC1 (configuration not stated) | 1.78 | 2.37 | 8.82 | 8.84 | 1.95
Cc1ccc(CCNC(=O)CCCc2nnc3n4nc(-c5ccccc5)nc4c4ccccc4n23)cc1 | 3.74 | 5.03 | 9.68 | 5.94 | -1.17
CCCSCCCN1C(=O)c2cc3occc3n2CC1(C)C(=O)NC1CCCCCCC1 (configuration not stated) | -3.25 | 0 | 3.64 | -0.815 | -3.99
CCCCOc1ccc(CC/C=C2\SC(=O)N(CCN)C2=O)cc1 | – | 15.7 | – | -23.5 | -0.562
Cn1c(=O)[nH]cc(CC(=O)N2C[C@H](C3CC3)[C@@H](N)C2)c1=O | -5.92 | -10.1 | -3.58 | -5.18 | -7.92
CN(C)c1ccc(CN2CCC(N3CCCCCC3=O)CC2)cc1 | -5.63 | -4.39 | -6.66 | -12.8 | -10.1
CN(C)Cc1cc(C[C@@H]2CC[C@H](O)[C@@H](CNC(=O)N3CCOCC3)O2)no1 | -1.86 | 0.158 | 0.567 | -2 | -6.27
CCCN(C/C=C/c1ccccc1)C(=O)c1cccc(OCC(N)=O)c1 | -5.63 | -6.3 | -3.02 | -13.2 | -0.592
CC(C)c1nc2c(c(-c3ccc(O)cc3)n1)CCN(CC1CCCCC1)CC2 | -8.11 | -10.7 | -15.5 | -30.4 | -19.1
C[C@]12C[C@H](O)[C@H]3[C@@H](CCC4=CC(=O)CC[C@@]43C)[C@@H]1CC[C@@H]2C(=O)CO | -15.2 | 7.89 | -0.005 | -8.65 | 7.84
CCCn1c(=O)c2ccc(C(=O)NC(C)CC)cc2n2c(SCC(=O)Nc3ccccc3F)nnc12 (configuration not stated) | 3.84 | 0 | 6.54 | -1.96 | 5.51
COc1ccc(OC)c(S(=O)(=O)N2CCCCC2)c1 | -0.751 | 4.08 | 4.87 | 3.05 | 0.999
COc1ccc(S(=O)(=O)Nc2cccnc2Nc2ccc(O)cc2)cc1 | 4.72 | -4.52 | 7.33 | -21.2 | -16.5
O=C(Nc1cc2cc[nH]c2cn1)c1ccccc1 | -88 | -85.2 | -77.1 | -89.6 | -81.6
CC(=O)Nc1c2n(c3ccc(F)cc13)CC(C)(C(=O)NC1CCCCCC1)N(CCC(C)C)C2=O (configuration not stated) | -6.01 | -2.36 | -1.03 | -6.98 | -2.43
CNc1nc(C)nc(N[C@H]2CCC[C@@H](C(=O)NCc3ccc(C#N)cc3C(F)(F)F)C2)n1 | 3.65 | -0.172 | 7.79 | -28.1 | -0.362
